Hit rate of the full screen: of about 46,000 compounds, about 60 (0.1%) were called active. Not shown: some 3% with an inconclusive outcome. The call rests on the fitted dose curve; in most records, active means well fitted inhibition curve with a large enough effect; inconclusive means small, poorly fitted or top-dose-only effect; inactive means no such curve, though single readings can be large or run the other way. The list shows a part of the results.
Experiment: Primary qHTS assay for Inhibitors of ovarian cancer metastasis using an organotypic tumor microenvironment (TME) model. Further: nearly all actives have a fitted effect of over 65% in size.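 On activity change, negative = inhibition: plate controls were DMSO wells for no effect and tomatine positive control wells for full effect.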
Conditions: SKOV3ip1-GFP adhesion/invasion on 3D omental model, fluorescence; series mostly up to 45.8 µM; activity change, negative = inhibition: at the top concentration
How it was run: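 Primary human omental fibroblast/mesothelial 3D culture pre-formed 48 h. SKOV3ip1-GFP cells added with compounds (0.36-46 umol/L), incubated 2 h RT/16 h 37 C, fixed; GFP cells quantified at 488/509 nm.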

Activity change, negative = inhibition, inactive:
COc1ccccc1N1CCN(C(=O)c2cc(-c3ccc(C)c(F)c3)on2)CC1 -11.6%
COCCCNC(=O)CN1C(=O)c2cccnc2Sc2ccccc21 18.5%
O=C(Nc1cccc(C(F)(F)F)c1)Nc1nnc(N2CCCCCC2)s1 -0.64%
CCN(CC)CCNC(=O)C(=O)Nc1c2c(nn1-c1ccc(F)cc1)CSC2 0.98%
COc1ccc(-c2cc(C(=O)Nc3sc4c(c3C(N)=O)CCCC4)no2)cc1 33.1%
COc1cccc2cc(C(=O)Nc3ccc(CC(=O)O)cc3)c(=O)oc12 -1.89%
Cc1cccc(NC(=O)CSc2nc3ccc(NC(=O)COc4ccccc4C)cc3s2)c1 -13.5%
CC1CN(C(=O)NCc2ccccc2)c2cc(Cl)ccc2O1 (configuration not stated) 3.54%
CCCNC(=O)CCC(=O)N1Cc2cccc(OC)c2Oc2ncccc21 3.81%
O=C(NCc1ccc(Cl)cc1)C1CCN(c2nn3cc(-c4ccc(F)cc4)nc3s2)CC1 -4.01%
CCn1c2c(c(=O)n3ncc(C(=O)Nc4cc(Cl)ccc4OC)c13)CN(Cc1ccc(OC)cc1)CC2 -7.43%
CCCCc1cc(=O)oc2cc(C)c3c(C(C)(C)C)coc3c12 -1.65%
COc1cccc(CNC(=O)c2cc(-c3ccc(Cl)s3)nc3ccccc23)c1 1.38%
COc1ccc(NC(=O)c2nc(S(C)(=O)=O)ncc2N(Cc2ccc(C)cc2)Cc2ccco2)cc1Cl 1.1%
COc1ccc(Cl)cc1NC(=O)c1cc(-c2ccc3c(c2)OCO3)on1 -5.13%
Cc1cccc(CSc2nc3c(sc4ccccc43)c(=O)n2CCC(=O)NC(C)C)c1 -0.621%
Cc1ncc(CO)c2c1Oc1nc(-c3ccc(Cl)cc3)nc(SCC(=O)N3CCCCC3)c1C2 2.23%
CCOc1ccc(C(=O)c2cn(CC(=O)Nc3ccc4c(c3)OCO4)c3ccc(OC)cc3c2=O)cc1 0.308%
Cc1ccc(CNC(=O)CCc2c(C)nn(-c3ccc(N4CCOCC4)nn3)c2C)cc1 4.92%
O=C(NCC(c1cccnc1)N1CCN(c2ccccc2F)CC1)C(=O)Nc1ccc(F)cc1F (configuration not stated) -0.549%
O=C(CCn1c(=O)c2cccn2c2cccnc21)NCc1ccccc1Cl 1.68%
O=C(CSc1nc2ncccc2[nH]1)Nc1cc(F)ccc1F -4.99%
Cc1ccc(Cl)cc1NC(=O)CSc1nc2ccccc2c2nc(-c3ccccc3)nn12 1.97%
CCn1c(=O)n(-c2ccc3c(c2)OCO3)c2nc(-c3ccc(C(C)C)cc3)nc(C(N)=O)c21 2.5%
O=C(Nc1cccc(Cl)c1)C1CCCN(c2nn3cc(-c4ccc(F)cc4)nc3s2)C1 (configuration not stated) 9.87%
COc1ccc(OC)c(NC(=O)Cn2c(=O)c3cccn3c3ccccc32)c1 13.7%
CCOc1ccc2c(c1)c(=O)c(C(=O)c1ccc(CC)cc1)cn2CC(=O)Nc1ccccc1OC 0.308%
CC1CCCCN1CCCNC(=O)c1cc(Sc2cccc(Cl)c2)nc2ccccc12 (configuration not stated) -14.1%
O=C(COc1ccc2ccccc2c1)NC1CC(=O)N(c2ccc(F)cc2)C1 (configuration not stated) -5.51%
CC1(C)N=C(SCc2ccc(F)cc2)c2ccccc2N1 1.52%
O=C(Cn1cc(C(=O)C(F)(F)F)c2ccccc21)N1CCCCCC1 -26.8%
Cc1c(CNC2CCCCC2)c(C(=O)O)c(C)n1Cc1ccccc1F 6.37%
Cc1ccccc1OCc1nc2c3cnn(-c4cccc(F)c4)c3ncn2n1 -6.07%
CCCCNC(=O)c1c(-c2ccccc2)c(-c2ccccc2)nn(C)c1=O 1.06%
Cc1ccc2c(c1)N(C(=O)N1CCC(C(=O)NCc3ccccc3C)CC1)CC(C)O2 (configuration not stated) -0.293%
Cc1oc2ncn(CC(C)C)c(=O)c2c1C(=O)N(CCN(C)C)Cc1ccccc1 3.51%
COc1cccc(C2C(C(=O)Nc3ccc(Cl)cc3)=C(C)Nc3nc4ccccc4n32)c1OC (configuration not stated) -20.9%
CC(=O)N1CCCc2cc(S(=O)(=O)N3CCN(c4ccccc4F)CC3)ccc21 -8.18%
CCNC(=O)c1c(NC(=O)Cc2coc3ccc(CC)cc23)sc2c1CCCC2 7.72%
O=C(CSc1nc(=O)[nH]c2c1CCCC2)NCc1ccccc1Cl -3.72%
COc1ccc(C)cc1NC(=O)c1cc(S(=O)(=O)N2CCOCC2)cn1C -30.2%
CC1=C(C(=O)Nc2cccnc2)C(c2cccc(F)c2)n2nc(SCc3ccccc3F)nc2N1 (configuration not stated) -0.306%
CCCCNC(=O)CN1C(=O)c2cccnc2Sc2ccccc21 -1.15%
CCOC(=O)c1c(C)n(-c2ccccc2)c2ccc(OC(=O)COc3ccccc3)cc12 16.5%
COc1ccc(N2CCN(C(=O)C3CCCN(C(=O)c4cc5sccc5n4C)C3)CC2)cc1 (configuration not stated) 1.81%
CCCc1nnc(NC(=O)c2cc(=O)c3ccccc3o2)s1 4.95%
CCOc1ccccc1NC(=O)CCCc1nc(-c2ccccc2Cl)no1 6.39%

outcome, inactive:
CC(=O)c1cccc(NC(=O)CN2C(=O)CCc3cc(S(=O)(=O)N4CCCCC4)ccc32)c1
CCCCN1CC(c2nc3ccccc3n2CCCCOc2cc(C)cc(C)c2)CC1=O (configuration not stated)
CCOc1ccc(S(=O)(=O)N2Cc3ccccc3CC2C(=O)Nc2ccc(NC(C)=O)cc2)cc1 (configuration not stated)
COc1ccc(C)cc1NC(=O)N1CCN(S(=O)(=O)c2ccc3c(ccn3C)c2)CC1
COc1cccc(N2CCN(C(=O)C3CCCN(S(=O)(=O)c4cccc5nsnc45)C3)CC2)c1 (configuration not stated)
Cc1ccc(S(=O)(=O)c2cn(CC(=O)Nc3cccc(Cl)c3)c3ccccc3c2=O)cc1
CCOc1ccc(C(=O)Nc2cc(-c3nc4cc(OC)ccc4o3)ccc2C)cc1[N+](=O)[O-]
CCOC(=O)C1CCN(C(=O)c2nn(-c3ccc(OC)c(Cl)c3)c(=O)c3c2c2ccccc2n3C)CC1
Cc1ccccc1CN1c2ccccc2-c2nc(SCC(=O)c3ccccc3)ncc2S1(=O)=O
CCOc1ccccc1NC1(c2ccccc2)C(=O)c2ccccc2C1=O
CCNC(=O)c1ccc2c(c1)nc1n2CCCCC1
CCCCNC(=O)c1ccc2c(c1)N(CC)C(=O)c1ccccc1S2
CC(=O)N1c2ccc(S(=O)(=O)NCc3ccccc3Cl)cc2CC1C (configuration not stated)
CCc1cccc(NC(=O)CSc2nncn3c2cc2sccc23)c1
CCOc1ccc(CCNC(=O)c2cc3c(=O)n(CC)c4ccccc4c3s2)cc1OCC
